# From article PMC4336329 (PLoS ONE, 2015)
# Out of some 310,000 compounds screened, about 2,200 (0.71%) showed an effect of 50% or more. Effects have a minus sign here. Some of the results follow.
# Target: human ether-à-go-go-related gene (hERG) potassium channel (human, UniProt Q12809)
# Assay: primary screen, population patch clamp on CHO cells stably expressing hERG
# Sequence of human ether-à-go-go-related gene (hERG) potassium channel (Q12809 whole entry, looked up): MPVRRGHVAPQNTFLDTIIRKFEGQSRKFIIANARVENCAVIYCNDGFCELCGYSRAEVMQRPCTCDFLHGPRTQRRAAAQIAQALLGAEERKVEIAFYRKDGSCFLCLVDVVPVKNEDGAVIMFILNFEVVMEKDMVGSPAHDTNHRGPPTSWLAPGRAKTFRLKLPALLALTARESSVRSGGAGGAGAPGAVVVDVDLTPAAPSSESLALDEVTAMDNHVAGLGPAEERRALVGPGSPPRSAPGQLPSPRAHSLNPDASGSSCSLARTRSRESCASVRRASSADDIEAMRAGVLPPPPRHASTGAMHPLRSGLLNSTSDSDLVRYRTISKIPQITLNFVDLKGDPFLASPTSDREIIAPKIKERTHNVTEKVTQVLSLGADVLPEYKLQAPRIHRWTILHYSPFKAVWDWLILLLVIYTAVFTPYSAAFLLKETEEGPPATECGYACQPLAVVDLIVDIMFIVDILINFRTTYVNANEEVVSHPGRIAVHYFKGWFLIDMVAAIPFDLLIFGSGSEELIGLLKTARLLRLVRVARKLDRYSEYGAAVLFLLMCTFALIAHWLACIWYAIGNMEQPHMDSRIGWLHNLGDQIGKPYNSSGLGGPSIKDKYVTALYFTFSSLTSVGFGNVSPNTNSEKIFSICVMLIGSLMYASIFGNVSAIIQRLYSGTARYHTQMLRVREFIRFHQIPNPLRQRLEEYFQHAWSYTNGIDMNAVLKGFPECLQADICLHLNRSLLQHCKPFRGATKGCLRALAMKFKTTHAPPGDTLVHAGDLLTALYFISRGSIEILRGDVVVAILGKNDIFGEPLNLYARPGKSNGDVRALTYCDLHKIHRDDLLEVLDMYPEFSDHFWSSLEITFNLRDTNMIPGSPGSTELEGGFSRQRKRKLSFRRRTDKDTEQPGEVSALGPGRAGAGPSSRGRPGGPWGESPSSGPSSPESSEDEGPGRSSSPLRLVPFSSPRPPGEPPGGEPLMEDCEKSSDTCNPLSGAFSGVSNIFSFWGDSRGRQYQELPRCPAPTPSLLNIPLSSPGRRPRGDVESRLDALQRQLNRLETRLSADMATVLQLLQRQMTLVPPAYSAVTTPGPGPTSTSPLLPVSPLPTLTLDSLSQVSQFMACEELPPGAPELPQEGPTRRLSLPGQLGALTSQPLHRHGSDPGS
row,Structure (SMILES),"hERG current change (%, negative = inhibition) at 1uM [%]"
1,COc1ccc(CNC(=S)Nc2cccc(F)c2)cc1,4.7
2,O=C(CSc1nnc(-c2cccc(S(=O)(=O)N3CCCC3)c2)n1-c1ccccc1)Nc1cccc(C(=O)O)c1,6.66
3,Cc1cc(C)c2c(N)c3ccccc3nc2n1,-15.5
4,C/C(=N\NC(=O)Cn1nnc2ccccc21)c1ccco1,8.98
5,CCC(C)Nc1nc(-c2cccc(OC)c2O)nc2ccccc12 (stereo not shown),1.13
6,COc1ccc(C2C3=C(CC(C)(C)CC3=O)Oc3ncn(CCO)c(=N)c32)cc1OC (stereo not shown),-7.71
7,COC(=O)c1cn(C(=O)c2cc(Br)ccc2Cl)c2ccccc12,15.2
8,COc1ccccc1OCc1nc(Cc2ccc(Cl)cc2)no1,-33.7
9,CCC(C)NC(=O)C1CCC(=O)N1Cc1ccc(C)cc1 (stereo not shown),17.9
10,Cc1cc(NC(=O)CSc2nnnn2-c2ccccc2)no1,5.76
11,O=C(Nc1ccccc1)c1cccc(Cn2cc(C(F)(F)F)ccc2=O)c1,9.13
12,O=C(NN1C(=O)C2C3C=CC(C3)C2C1=O)c1cccc(Cl)c1 (stereo not shown),7.15
13,CSc1ccc(C2=CC(=O)C[C@H](c3ccc(F)cc3)C2)cc1,13.7
14,Cc1cc(Cl)c2oc(C(=O)N(C)CCc3cnn(C)c3)c(C)c2c1,14.8
15,Cc1nn(-c2ccccc2)c(C)c1C1C(C#N)=C(N)Oc2n[nH]c(C)c21 (stereo not shown),7.64
16,O=C(Nc1nccs1)c1ccc(COc2ccccc2Br)o1,4.08
17,O=C(c1ccc(=O)[nH]c1)N(Cc1cccs1)C1(C(=O)NC2CCCC2)CCCCC1,5.07
18,COc1cccc(/C=C/C(=O)OCC(=O)Nc2ccc(S(=O)(=O)N3CCCC3)cc2)c1,7.4
19,O=C(COc1ccccc1C(=O)c1cnn(-c2ccccc2)c1)Nc1ccccc1,2.78
20,O=C(CN1C(=O)NC2(CCOc3ccccc32)C1=O)c1ccc[nH]1 (stereo not shown),-1.24
21,O=C(CCCOC(=O)c1ccc(O)cc1O)c1ccc(F)cc1,-0.497
22,CCn1c(P(C)(=O)[O-])nc2ccccc21.[Na+],13.6
23,COc1ccc(N2C(=O)NC3CC2(C)Oc2ccccc23)cc1OC (stereo not shown),4.01

row,Structure (SMILES),"hERG current change (%, negative = inhibition) at 1uM [%]"
1,Cn1c(=O)cc(OCCCC(=O)NCCC2=CCCCC2)c2ccccc21,4.79
2,CCOc1ccc(CCNC(=O)CCn2cccc2)cc1OCC,8.86
3,Cc1ccccc1C(=O)/C=C1/c2ccccc2CC(C)(C)N1C,-13.3
4,CC(=O)c1ccc(NC(=O)C(C)OC(=O)C2CCN(c3ccc(C(F)(F)F)cn3)CC2)cc1 (stereo not shown),9.25
5,COc1ccc(NC(=O)CN(C)S(=O)(=O)c2cnc[nH]2)cc1OC,14.3
6,CC(C)(C)c1nnc2cccc(Cl)n12,4.22
7,CC(NS(=O)(=O)OCC(Cl)(Cl)Cl)c1ccc(C(C)(C)C)cc1 (stereo not shown),13.3
8,O=S(=O)(CCc1ccncc1)Cc1ccc2c3c(cccc13)CC2,13
9,Cc1ccc(NC(=O)C(Nc2cccc(C)c2)c2ccccc2)cc1 (stereo not shown),5.62
10,CC(C)CC1CCCCC1OC(=O)CN1CCCCC1 (stereo not shown),18.5
11,CCn1c(C)nc2c1C(=O)c1ccccc1C2=O,2.73
12,COc1ccc2nc(SCC(=O)Nc3c(C)cc(C)cc3C)[nH]c2c1,19.5
13,Cn1c(SCC(=O)NC2CC2)nnc1C(F)(F)F,2.9
14,COc1cc(/C=N/NC(=O)C(=O)NCc2ccco2)ccc1O,4.87
15,Nc1ccc(/C=C/C(=O)c2cccs2)cc1,7.35
16,CC(C)Cc1nnc(NC(=O)CN2C(=O)NC3(CCCC3)C2=O)s1,-1.25
17,COc1ccc(S(=O)(=O)N2CCC(C(=O)NCc3cccs3)CC2)cc1,9.41
18,Cc1cccc(C(=O)NNC(=O)c2n[nH]c(=O)c3ccccc23)c1C,2.94
19,CCSc1nnc(NC(=O)CSc2c(Cl)cccc2Cl)s1,0.994
20,COCCn1c(Sc2ccc(C)cc2)nc2c1c(=O)[nH]c(=O)n2C,11.1
21,COc1ccccc1CN1CCN(Cc2nc(-c3ccccc3)no2)CC1,-13.2
22,CCOC(=O)/C(C#N)=C/c1ccc(N2CCN(C)CC2)cc1,-7.63
23,CC1CCC/C(=N\NC(=S)Nc2ccccc2)C1 (stereo not shown),19.7
